# Source: PubChem BioAssay AID1671194 (National Center for Advancing Translational Sciences (NCATS), 2021)
# In all, about 140,000 compounds went through this assay and about 240 (0.17%) were called active. The inconclusive results got no clear call from the source; some entries with a clear call stand among them for comparison. Calls come from the whole dose curve; as a rule, active = well fitted inhibition curve with a large enough effect; inconclusive = small, poorly fitted or top-dose-only effect; inactive = no such curve, though single readings can be large or run the other way. Potencies of inconclusive entries are doubtful fits and often do not repeat.
# Test: Primary qHTS assay for inhibitors of alpha-synuclein gene (SNCA) expression; note: nearly all actives have a fitted effect of over 45% in size;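 for activity change, negative = inhibition: plate controls were DMSO cells for no effect and cell-free wells for full effect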
# Conditions: HEK-293 SNCA-luciferase knock-in, luminescence, 24 h; activity change, negative = inhibition: at 57.2 µM (top of the series) unless noted
# Potency is the fitted concentration of half-maximal effect; tags give direction and shape of the fitted curve.
Compound,Potency,"activity change, negative = inhibition"
O=C(c1cnc(N2CCCCC2)c2ccccc12)N1CCN(c2ccc(F)cc2)CC1,"inconclusive: 39.8 µM [inhibitor, single point]",
COc1cccc(Nc2cnc3ccc(-c4ccc(OC)c(OC)c4)nn23)c1,,inactive: -7.18% [at 87.6 µM]
CCOc1ccc2c(n1)CCN(C(=O)c1ccco1)C2,"inconclusive: 11.2 µM [inhibitor, single point]",
CN(C)c1ccc(-c2nc(NCCc3cnc[nH]3)c3ccccc3n2)cc1,"inconclusive: 39.8 µM [inhibitor, single point]",
CCc1noc([C@@H]2CC(F)(F)CN2C(=O)c2nccn2C)n1,,inactive: -8.81%
O=C(C1CCCN([S+](=O)([O-])c2cccs2)C1)N1CCCC(c2nc3ncccc3[nH]2)C1 (centres undefined),,inactive: 0.66%
O=C(NCCn1cccc1-c1nc(-c2ccc3c(c2)OCO3)no1)c1ccc(Cl)cc1,,inactive: 78.8%
CC(C)c1ccc(CN2CC[C@@H]3OCC(=O)N(Cc4ccccc4)[C@H]3CC2)cc1,"inconclusive: 35.5 µM [inhibitor, single point]",
COc1ccc2c(CNCCc3ccccc3OC)c(C(=O)O)n(Cc3ccc(F)cc3Cl)c2c1,"inconclusive: 39.8 µM [inhibitor, single point]",
COc1ccc(CCc2nc3nccc(-c4ccc(OC)c(OC)c4)n3n2)cc1,,inactive: 16.4%
COCCN1C[C@H]2CN(Cc3ccc(C(=O)O)cc3)CCN2C1=O,,inactive: 5.71% [at 87.6 µM]
COc1cncc(-c2cn(C)c(=O)n3cc(CNc4ccccc4)nc23)c1,,inactive: -5.18% [at 87.6 µM]
Cc1ccc(C(=O)NCc2nnc3ccc(-c4ccccc4)nn23)c(C)c1,"inconclusive: 39.8 µM [inhibitor, single point]",
O=C(NCc1cccs1)c1cc(Br)cn2ccnc12,inactive,
O=C(Cn1ccn2nc(-c3ccc(F)cc3)c(CO)c2c1=O)NCc1ccc2c(c1)OCO2,"inconclusive: 8.91 µM [inhibitor, partial curve]",
C[C@@]12CO[C@@H](CNC(=O)C3CCCC3)O[C@@H]1CC[C@]1(C)[C@@H]2CC[C@@H](O)[C@H]1CC(=O)NCc1ccc(F)cc1,,inactive: 20.4%
Cc1ccc(-c2noc([C@@H]3Cc4nc[nH]c4CN3Cc3ccc(CO)o3)n2)cc1,"inconclusive: 3.16 µM [inhibitor, full curve, poor fit]",
Cn1c(=O)c2c(nc(NCc3ccccc3)n2Cc2ccc(Cl)c(Cl)c2)n(C)c1=O,"inconclusive: 39.8 µM [inhibitor, single point]",
CCCSc1nc2c(c(=O)[nH]1)C(c1ccc(O)c(OCC)c1)CC(=O)N2 (centres undefined),"inconclusive: 39.8 µM [inhibitor, single point]",
